Among all 46,000 compounds or so, about 60 (0.1%) were called active. Another 3% or so got no clear call; they are omitted. Calls follow the shape of the dose curve; as a rule, active = well fitted inhibition curve with a large enough effect; inconclusive = small, poorly fitted or top-dose-only effect; inactive = no such curve, though single readings can be large or run the other way. The list shows a part of the results.
Test: Primary qHTS assay for Inhibitors of ovarian cancer metastasis using an organotypic tumor microenvironment (TME) model. Also: nearly all actives have a fitted effect of over 65% in size.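 As to activity change, negative = inhibition: plate controls were DMSO wells for no effect and tomatine positive control wells for full effect.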
Conditions: SKOV3ip1-GFP adhesion/invasion on 3D omental model, fluorescence; series mostly up to 45.8 µM; activity change, negative = inhibition: at the top concentration
Summary of the method: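 Adhesion/invasion was scored as fixed GFP-labeled SKOV3ip1 cell counts (488/509 nm), normalized to DMSO and tomatine controls. Cancer cells in serum-free medium, with four compound doses (0.36-46 umol/L), sat 2 hr at RT then 16 hr at 37 C on a 48 hr fibroblast/mesothelial/ECM culture.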

Activity change, negative = inhibition, inactive:
O=C(c1ccc(CS(=O)(=O)c2c(Cl)cccc2Cl)o1)N1CCN(c2ccccc2)CC1 -2.72%, COc1nc(-c2ccc(C)cc2)ccc1-c1noc(-c2ccc(C(C)(C)C)cc2)n1 4.36%, COc1ccccc1N1CCN(c2cc(C)nc3nc(-c4ccc(Cl)cc4)nn23)CC1 32.8%, Cc1ccc(NC(=O)c2cc(S(=O)(=O)N3CCCC3)c[nH]2)c(C)c1 -1.78%, COc1ccc(OC)c(S(=O)(=O)NCCc2csc3nc(-c4ccccc4)nn23)c1 2.4%, CC1CCN(S(=O)(=O)c2nnc(NC(=O)c3cccc(F)c3)s2)CC1 3.5%, COC(=O)c1sc2cccc(F)c2c1S(=O)(=O)N1CCN(c2ccc(C)cc2C)CC1 3.62%, CCOc1ccccc1CNC(=O)C1CCCN(S(=O)(=O)c2ccc3c(ccn3C)c2)C1 (stereo not drawn) -6.66%, CCc1ccc(-n2nc(C)c3c(C(=O)Nc4cc(C)ccc4C)cc(C)nc32)cc1 8.4%, Cc1c(C(=O)N(Cc2ccc(N(C)C)cc2)CC2CCCO2)oc2ccc(Br)cc12 (stereo not drawn) -9.27%, Cc1ccc(N2CCN(c3nc4c(S(=O)(=O)c5ccc(C)c(C)c5)nnn4c4ccccc34)CC2)c(C)c1 -4.09%, CCc1cccc(C)c1NC(=O)CN(C)S(=O)(=O)c1cccc2nsnc12 -6.57%, CCN1CCN(c2cc(C)c3cc(NC(=O)c4ccccc4F)ccc3n2)CC1 -14.8%, CCOC(=O)c1c(NC(=O)COc2ccc(Cl)cc2C)sc(C(C)=O)c1C -1.73%, CCc1c(C)c2ccc(O)c(CN3CCN(c4ccccc4)CC3)c2oc1=O -2.1%, COc1ccc(C)cc1NC(=O)N1CCC(CN2CCC(C)CC2)CC1 10.4%, Cc1ccc(S(=O)(=O)c2cn(C)c3cc(N4CCCCC4)c(F)cc3c2=O)cc1 9.71%, CCN(CC)S(=O)(=O)c1ccc2oc(C(=O)NCc3ccccc3OC)c(C)c2c1 -18.1%, CCOc1ccc(N(CC)S(=O)(=O)N2CCCC(C(=O)NCCc3ccc(OC)cc3)C2)cc1 (stereo not drawn) -5.81%, COCCCNC(=O)c1ccc(Cn2c(SCc3cccc(C)c3)nc3cccnc32)cc1 7.3%, COC(=O)c1ccccc1NC(=O)Cn1c(=O)n(-c2cccc(C(F)(F)F)c2)c(=O)c2c(C)c(C)sc21 -22.6%, Cc1cccc2sc(N(CCCN(C)C)C(=O)COc3ccccc3)nc12 -1.32%, Cc1cc(C)c2c(n1)sc1c(=O)n(-c3cc(Cl)ccc3C)nnc12 11%, CCCn1c(CCCNC(=O)c2ccccc2OC)nc2ccccc21 20.9%, CCOC(=O)C1CCCN(C(=O)c2nn(-c3ccc(C)cc3)c(=O)c3c2c2ccccc2n3C)C1 (stereo not drawn) -4.89%, O=C(/C=C\c1ccccc1)NC1CC(=O)N(c2ccccc2)C1 (stereo not drawn) -5.6%, CCOc1ccc(CNS(=O)(=O)c2ccc(-c3coc(C)n3)cc2)cc1OC -3.46%, CCN(Cc1ccccc1)C(=O)c1sc2nc3n(c(=O)c2c1C)CCCC3 20.7%, CCc1ccc2c(c1)-c1ccccc1S(=O)(=O)N2CC(=O)N1CCCCC1 0.694%, COc1cccc(NC(=O)c2cnc(SCC(=O)N3CCOCC3)n(C)c2=O)c1 3.99%, Cc1ccc(Cl)cc1N1CCN(C(=O)CN2C(=O)CSc3c2c(C)nn3-c2ccccc2)CC1 31.1%, O=C(NCc1cccs1)c1ccc(Cn2c(SCc3ccc(F)cc3)nc3cccnc32)cc1 4.82%, COCCNC(=O)Cn1c(=O)n(CCCCCC(=O)Nc2ccccc2)c(=O)c2sccc21 -2.1%, O=S(=O)(c1ccccc1)c1nnn2c1nc(NCc1ccccc1)c1sccc12 12.2%, COc1ccc(/C=C(\C#N)c2nc3ccccc3n2C)c(OC)c1 13.2%, CCN(CC)CCCNC(=O)CN1N=C(c2ccc(OC)cc2)CCC1=O -5.75%, COc1ccc(CNC(=O)CCCn2c(=O)c3cccn3c3cccnc32)cc1 2.52%, CCc1ccc(CNC(=O)c2c(C)oc3ncn(CC(C)C)c(=O)c23)cc1 -3.36%, COc1cc(Cl)c(C)cc1NC(=O)Cn1ncc2c3ccccc3n(Cc3ccccc3)c2c1=O 0.646%, COc1ccc(C(=O)N2c3ccc(C)cc3C(C)(c3ccccc3)CC2(C)C)cc1 (stereo not drawn) 8.61%, Cc1ccccc1NC(=O)c1ccc(Cl)c(S(=O)(=O)N2CCCCCC2)c1 -9.23%, CCCCNS(=O)(=O)c1ccc2nc(-c3cccnc3)cc(C(=O)NCCOC)c2c1 2.69%, CCOCCCNC(=O)c1c(NC(=O)Cc2coc3ccc(C)cc23)sc2c1CCC2 -0.0919%, CCc1ccc(S(=O)(=O)c2c(C(=O)c3ccccc3)cnc3ccc(CC)cc23)cc1 2.65%, COc1ccc(OC)c(NC(=O)Cc2c(C(=O)O)n(C)c3ccc(C)cc23)c1 -1.13%, O=C1c2[nH]nc(-c3ccccc3O)c2C(c2ccc(F)cc2)N1CCO (stereo not drawn) -0.225%, COc1ccc(NC(=O)CSc2nccn2Cc2ccco2)c(OC)c1 2.86%, CCC1CCCCN1C(=O)Cn1c(=O)cc(C(F)(F)F)c2c(C)nn(C)c21 (stereo not drawn) 2.96%, CCc1cccc(C)c1Nc1c(-c2cccc(O)c2)nc2nc(C)cc(C)n12 -6.4%, COC(=O)c1cnn(-c2ccc(C(=O)Nc3cc(OC)c(OC)c(OC)c3)cc2)c1N 2.23%, CCOC(=O)c1cc(-c2ccc(OC)cc2)n(CCC(=O)Nc2nc3ccc(OCC)cc3s2)c1C -9.05%, COc1ccc(NC(=O)c2c(NC(=O)Cc3ccccc3)sc3c2CCCC3)cc1 -1.12%, O=C(CSc1ccc2nc(-c3ccccc3)cn2n1)Nc1cccc(F)c1 7.88%, Cc1cccc(NC(=O)CSc2nc3ccc(NC(=O)COc4ccccc4F)cc3s2)c1 -7.05%, Cc1cc(F)ccc1NC(=O)Cn1c(=O)ccc2cc(S(=O)(=O)N3CCC(C)CC3)ccc21 4.59%, COc1ccc(Cn2nnc3c(=O)[nH]c(C4CCN(C(=O)c5ccc(C)cc5)CC4)nc32)cc1OC -1.75%, COc1ccc(CNC(=O)c2ccc(CNS(=O)(=O)c3ccc(F)cc3)cc2)cc1 -20.3%, COC(=O)c1sccc1S(=O)(=O)N(CC(=O)NCc1ccc(F)cc1)c1ccc(Cl)cc1 13.8%, COc1ccc(CCNC(=O)c2ccc3c(c2)N(Cc2ccccc2C)C(=O)c2ccccc2S3)cc1OC 3.2%, Cc1ccccc1NC(=O)CSc1nnc(-c2cccs2)o1 0.93%, CCOC(=O)O[C@]1(C(=O)OCCl)CC[C@@H]2[C@H]3CCC4=CC(=O)C=C[C@]4(C)[C@@H]3[C@@H](O)C[C@@]21C -2.93%, Cc1cc(C)cc(NC(=O)Cn2c(C(F)(F)F)nc3ccccc32)c1 -6.21%, CCCCS(=O)(=O)c1nc(-c2ccc(Br)cc2)cc(-c2ccccc2)c1C#N -26%, Cc1ccc(Cl)cc1N1CCN(C(=O)c2cc3c(-c4ccccc4F)nn(C)c3s2)CC1 -7.4%, CCc1ccc2oc(-c3cc(NC(=O)c4cc([N+](=O)[O-])ccc4N4CCOCC4)ccc3Cl)nc2c1 5.65%

outcome, inactive:
Cc1cccc(N2CCN(C(=O)c3ccc4c(c3)c(C)c(C)n4C)CC2C)c1 (stereo not drawn), CC(=O)N1CCc2cc(Br)cc(S(=O)(=O)CCC(=O)Nc3ccc(C)cc3Cl)c21, CCOc1ccc2oc(=O)cc(CN3CCN(c4ccc(Cl)cc4)CC3)c2c1, Cc1ccc(S(=O)(=O)NCC2CCC(C(=O)NCCc3ccc(Cl)cc3)CC2)cc1 (stereo not drawn), Cc1ccc(C)c(N2CCN(C(=O)c3cc(S(=O)(=O)N4CCCCCC4)cn3C)CC2)c1, CCC(=O)N1c2ccc(S(=O)(=O)CCC(=O)Nc3ccc(Br)c(C)c3)cc2CC1C (stereo not drawn), CCN(CC)CCCNC(=O)c1nn(-c2ccc(C)cc2)c(=O)c2c1c1ccccc1n2C, CCOCCCN(Cc1ccco1)C(=O)c1cc2c(=O)[nH]c3ccc(C)cc3c2s1, O=C(NCCCc1nc2ccccc2n1Cc1ccc(Cl)cc1Cl)c1ccco1, CC(C)c1ccc(OCC(O)CN2CCN(c3ccc(F)cc3)CC2)cc1 (stereo not drawn), O=S(=O)(c1cccc(F)c1)N1CCC(Oc2ccc(-n3cnnn3)cc2)CC1, CCc1ccc(-n2c(=O)c3c(C)c(C(=O)N(C)C)sc3n(Cc3ccccc3C#N)c2=O)cc1, Cc1ccc(CN(Cc2ccco2)C(=O)c2ccc(Cl)cc2)o1, CCc1ccccc1NC(=O)CSc1ncc(S(=O)(=O)c2ccc(C(C)C)cc2)c(N)n1, COc1ccc(-c2nc(SCC(=O)N3CCCCC3C)n[nH]2)cc1 (stereo not drawn), CC1=C(C(=O)Nc2ccc(Cl)cc2)C(c2ccc(C(F)(F)F)cc2)n2nnnc2N1 (stereo not drawn), CCOC(=O)c1c(C)sc(-c2c(-c3ccc(OC)c(F)c3)[nH]c3[nH]c(=O)[nH]c(=O)c23)c1O, Cc1ccc(NC(=O)C2CCCN2S(=O)(=O)c2ccc3c(c2)CCCC(=O)N3)cc1Cl (stereo not drawn), CCN(CC)CCCNC(=O)CN1N=C(c2ccccc2)CCC1=O, COc1ccc(NC(=O)Cn2c(=O)n(Cc3ccc(C(=O)NCc4ccccc4Cl)cc3)c(=O)c3ccccc32)cc1, Cc1ccc(NC(=O)Cn2nnc(C(=O)NCc3cccs3)c2N)cc1Cl, Cc1nn(C)c2c1c(C(F)(F)F)cc(=O)n2C(C)C(=O)NCc1ccccc1Cl (stereo not drawn), Cc1nn(CC(=O)N2CCN(c3cccc(C(F)(F)F)c3)CC2)c(=O)c2cccn12, COc1ccccc1NC(=O)CSC1=Nc2ccccc2C2=NC(CC(=O)NCc3cccs3)C(=O)N12 (stereo not drawn), Cc1oc(-c2cccc(Cl)c2)nc1Cn1c(SCc2ccccc2F)nc2ccncc21, COc1ccc(-n2ncc(C(=O)N3CCOCC3)c2C2CCN(C(=O)OC(C)(C)C)CC2)cc1, CCCN(CCC)C(=O)Cn1c(=O)n(-c2ccc(Cl)cc2)c(=O)c2c3c(sc21)CCCC3, COc1ccc(NC(=O)CSc2nc(-c3ccco3)cc(C(F)(F)F)n2)cc1Cl

— PubChem BioAssay AID1963576 (National Center for Advancing Translational Sciences (NCATS), 2024)
